# Assay results: PubChem BioAssay AID881 (National Center for Advancing Translational Sciences (NCATS), 2007)
# Several values for one entry are separate records, joined by “and”; a condition that tells them apart may be missing. Equal entries are not always repeated. Out of some 110,000 compounds screened, about 610 (0.55%) were called active. The inconclusive results got no clear call from the source; some entries with a clear call stand among them for comparison. Calls come from the whole dose curve; as a rule, active = well fitted inhibition curve with a large enough effect; inconclusive = small, poorly fitted or top-dose-only effect; inactive = no such curve, though single readings can be large or run the other way. Where the call is inconclusive, the potency comes from a doubtful curve fit.
# Biological target: Polyunsaturated fatty acid lipoxygenase ALOX15B (Homo sapiens) (UniProt O15296)
# UniProt O15296, sequence (O15296 whole entry, looked up): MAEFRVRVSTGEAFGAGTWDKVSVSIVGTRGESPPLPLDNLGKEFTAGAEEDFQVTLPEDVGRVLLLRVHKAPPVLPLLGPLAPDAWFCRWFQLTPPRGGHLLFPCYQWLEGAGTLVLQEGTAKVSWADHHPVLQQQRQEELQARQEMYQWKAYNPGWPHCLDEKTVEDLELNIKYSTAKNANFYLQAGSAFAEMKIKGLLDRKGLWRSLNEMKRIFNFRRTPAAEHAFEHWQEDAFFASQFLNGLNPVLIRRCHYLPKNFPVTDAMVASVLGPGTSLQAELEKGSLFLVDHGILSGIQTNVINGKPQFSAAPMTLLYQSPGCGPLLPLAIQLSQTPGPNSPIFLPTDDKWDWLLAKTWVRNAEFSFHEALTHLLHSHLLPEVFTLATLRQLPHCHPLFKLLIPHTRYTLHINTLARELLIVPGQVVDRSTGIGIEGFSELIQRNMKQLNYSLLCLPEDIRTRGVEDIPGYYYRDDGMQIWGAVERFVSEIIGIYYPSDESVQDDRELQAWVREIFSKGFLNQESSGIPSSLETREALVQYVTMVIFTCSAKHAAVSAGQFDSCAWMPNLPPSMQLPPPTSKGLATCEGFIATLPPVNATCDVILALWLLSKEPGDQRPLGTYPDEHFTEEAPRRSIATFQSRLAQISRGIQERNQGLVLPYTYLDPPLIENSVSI
# Test: qHTS Assay for Inhibitors of 15-hLO-2 (15-human lipoxygenase 2); note: nearly all actives have a fitted effect of over 60% in size
# Settings: purified 15hLO-2, xylenol orange hydroperoxide absorbance; activity change, negative = inhibition: at 57.1 µM (top of the series) unless noted
# How it was run: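 Enzyme 50 nM, AA 45 uM, 25 mM Hepes pH 7.5 + 0.01% Triton X-100; cpd preinc 15 min RT, rxn 90 min RT; stop/detect with 200 uM XO + 300 uM Fe(II) in 50 mM H2SO4, 30 min; A573/A405.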
# % is set by controls: 0 for no effect and ±100 for the full control effect; potency is the fitted concentration of half-maximal effect; tags give direction and shape of the fitted curve.
SMILES,Potency,"activity change, negative = inhibition"
O=C(CCN1c2ccccc2Sc2ccccc21)OCC(=O)N1CCN(C(=O)c2ccco2)CC1,"inconclusive: 12.6 µM [inhibitor, partial curve]",–
O=C1CCCC2=C1C(c1cn(-c3ccccc3)nc1-c1cccs1)c1c([nH]c(=O)[nH]c1=O)N2 (stereo not given),"inconclusive: 25.1 µM [inhibitor, partial curve]",–
CC(=O)c1ccc(N2CCN(C(=O)CCS(=O)(=O)c3ccc(C)cc3)CC2)cc1,"inconclusive: 31.6 µM [inhibitor, single point]",–
CCOC(=O)C1=C(C)N(C)C(=S)NC1c1ccccc1Cl (stereo not given),"inconclusive: 20 µM [inhibitor, partial curve]",–
CC(/C=N/NC(=O)c1cc(-c2ccc(Cl)cc2)nc2ccccc12)=C\c1ccco1,"inconclusive: 25.1 µM [inhibitor, single point]",–
CCOC(=O)c1sc(=S)n(-c2ccccc2Cl)c1SC,"inconclusive: 25.1 µM [inhibitor, single point]",–
Cc1ccc2c(c1)N(C(=O)CSc1nncn1C)C(C)(C)c1ssc(=S)c1-2,"inconclusive: 39.8 µM [inhibitor, single point]",–
O=Nc1ccc2oc(=O)ccc2c1,"inconclusive: 15.8 µM [inhibitor, partial curve]",–
CN(CC(=O)O)Cc1c(O)c(Cl)cc(Cl)c1Cl,–,inactive: -1.34% [at 11.4 µM]
Cc1ccc(C2C3=C(CC(C)(C)CC3=O)Nc3[nH]c(=S)[nH]c(=O)c32)cc1 (stereo not given),"inconclusive: 6.31 µM [inhibitor, single point]",–
O=C(O)[C@H]([C@H]1NCCS1)N1Cc2ccccc2C1,–,inactive: -3.56% [at 11.4 µM]
c1cncc(CNc2cc(-c3ccc4c(c3)OCO4)ncn2)c1,–,inactive: 18.6%
O=C(/C=C/c1ccccc1)c1cc(Br)ccc(=O)c1O,"inconclusive: 15.8 µM [inhibitor, partial curve]",–
Cc1nn(-c2ccccc2)c2[nH]c(=O)c(CNc3ccc(N4CCOCC4)cc3)cc12,active: 15.8 µM,–
O=C(O)C1=C/C(=C(/c2ccccc2)c2cc(C(=O)O)c(O)c3ccccc23)c2ccccc2C1=O,–,inactive: -4.79% [at 11.4 µM] and inactive: 0.667% [at 11.4 µM]
COc1ccc2nc(/N=C\N(C)C)sc2c1,"inconclusive: 0.316 µM [inhibitor, full curve, poor fit]",–
CC(C)c1nnc(SCC(=O)NCCC2=CCCCC2)n1N,"inconclusive: 12.6 µM [inhibitor, partial curve]",–
CCc1nnc(NC(=O)c2sc3nc4cc(C)ccc4cc3c2N)s1,"inconclusive: 39.8 µM [inhibitor, single point]",–
O=[N+]([O-])c1cccnc1N1CCCCC1,–,inactive: -8.54%
COC(=O)C1(Cc2ccccc2)C2c3cc(C(=O)N4CCCC4)n(Cc4ccc(OC(F)(F)F)cc4)c3CC2CN1C(=O)c1ccccc1 (stereo not given),–,inactive: 19.5%
CCOc1cc(/C=C2\CCC/C(=C\c3cc(Cl)c(O)c(OCC)c3)C2=O)cc(Cl)c1O,"inconclusive: 15.8 µM [inhibitor, partial curve]",–
CCOC(=O)c1ccc(CC(=O)c2oc3cc(O)ccc3c2C)o1,"inconclusive: 25.1 µM [inhibitor, single point]",–

SMILES,Potency,"activity change, negative = inhibition"
CC(C)c1nnc(NC(=O)c2c(O)c3cccc4c3n(c2=O)CCC4)s1,"inconclusive: 25.1 µM [inhibitor, partial curve]",–
Cc1ccc(N=Nc2c(O)ccc3cc(S(=O)(=O)O)ccc23)cc1,–,inactive: -6.21% [at 11.4 µM]
CCOc1ccc(-n2nnc3c(=O)n(C/C=C/c4ccccc4)cnc32)cc1,–,inactive: -2.02%
CC1CCCC(C)N1C(=O)c1ccccc1Nc1ccc(SC(F)F)cc1 (stereo not given),"inconclusive: 0.158 µM [inhibitor, full curve, poor fit]",–
Cc1c(O)c(=O)n(-c2ccccc2)n1C,"inconclusive: 10 µM [inhibitor, partial curve]",–
Cc1[nH]c2ccccc2c1C(c1ccccn1)N1CCC(C)CC1 (stereo not given),"inconclusive: 0.199 µM [inhibitor, full curve, poor fit]",–
CCc1nnc(NC(=O)CSc2ncnc3c2cnn3-c2ccc(OC)cc2)s1,"inconclusive: 3.98 µM [inhibitor, partial curve]",–
COc1ccc(-n2c(=O)c(-c3cc(F)cc(F)c3)nc3cnc(N4CCNCC4)nc32)cc1,–,inactive: 40.9%
CC1(C)Cc2[nH]c(=S)c(C#N)cc2CO1,active: 15.8 µM,–
COC(=O)[C@@]1(Cc2ccc(OC)cc2)[C@H]2c3cc(C(=O)N4CCCC4)n(Cc4ccc(C)o4)c3C[C@H]2CN1C(=O)c1ccccc1,"inconclusive: 15.8 µM [inhibitor, partial curve]",–
COc1ccc2[nH]c3nc(SCC(=O)Nc4ccc5c(c4)OCO5)nnc3c2c1,"inconclusive: 25.1 µM [inhibitor, partial curve]",–
Cc1ccc(Cn2nnc3c(=O)[nH]c(C4CCN(S(=O)(=O)c5ccccc5)CC4)nc32)cc1,"inconclusive: 0.126 µM [inhibitor, full curve, poor fit]",–
CN(C)c1ccc(-n2cccc2/C=C2/SC(=Nc3ccc(F)cc3)NC2=O)cc1,"inconclusive: 10 µM [inhibitor, partial curve, poor fit]",–
c1ccc2c(c1)nnn2CN1CCOCC1,–,inactive: -5.49% [at 11.4 µM]
O=C(NO)c1ccc(OC(F)F)cc1,"inconclusive: 5.01 µM [inhibitor, full curve]",–
O=C(Cn1sc2ccccc2c1=O)NC12CC3CC(CC(C3)C1)C2,active: 0.794 µM,–
COCCn1c(C)cc(C2=NNC(=Nc3ccccc3)SC2)c1C,"inconclusive: 3.16 µM [inhibitor, full curve]",–
CCOC(=O)c1cc(-c2ccccc2)sc1NC(=O)c1ccc(OC)cc1,–,inactive: -17.8%
O=C(COc1ccc(Cl)cc1Cl)NC(=S)N1CCCc2ccccc21,"inconclusive: 31.6 µM [inhibitor, single point]",–
O=C1NC(=S)S/C1=C1\Sc2ccccc2N1CCCS(=O)(=O)O,"inconclusive: 25.1 µM [inhibitor, single point]",–
O=C(NC(=S)Nc1ccc(C(=O)N2CCOCC2)cc1)c1ccc([N+](=O)[O-])cc1,"inconclusive: 3.98 µM [inhibitor, partial curve]",–
O=c1cc(-c2ccc(O)c(O)c2)oc2ccccc12,"inconclusive: 10 µM [inhibitor, partial curve]",–

SMILES,Potency,"activity change, negative = inhibition"
COc1ccc(/C=C/C(=O)NNc2c(F)c(F)cc(F)c2F)cc1OC,"inconclusive: 3.16 µM [inhibitor, full curve]",–
COc1ccc(S(=O)(=O)N(C(=O)C(C)C)c2ccc3oc(=O)sc3c2)cc1,"inconclusive: 31.6 µM [inhibitor, single point]",–
FC(F)(F)c1cccc(-c2ccc(-c3csnn3)o2)c1,"inconclusive: 25.1 µM [inhibitor, single point]",–
C=CCn1c(NC(=O)c2ccco2)c(S(=O)(=O)c2ccccc2)c2nc3ccccc3nc21,–,inactive: -13.4%
CCCCc1ccc(-c2csc(/C(C#N)=C\c3ccc(C)o3)n2)cc1,"inconclusive: 20 µM [inhibitor, partial curve]",–
N#C/C(=C\c1ccc(O)c(O)c1)C(=O)NCCCc1ccccc1,"inconclusive: 31.6 µM [inhibitor, partial curve, poor fit]",–
COc1ccc2[nH]c(C(=O)O)c(NS(=O)(=O)c3ccc(OC)c(OC)c3)c2c1,"inconclusive: 25.1 µM [inhibitor, partial curve]",–
CC1=CC(C)(C)Nc2cc(C)c(C)cc21,"inconclusive: 31.6 µM [inhibitor, single point]",–
O=C(c1cnccn1)N1CCC[C@@]2(CCN(c3cccc(-c4ccccc4)c3)C2)C1,"inconclusive: 12.6 µM [inhibitor, partial curve]",–
CC(=O)NCCNc1nc(-c2ccccc2C)nc2ccccc12,–,inactive: -12.8%
CCOc1cc(-c2cc(-c3ccc(C)o3)nc(N)c2C#N)ccc1O,"inconclusive: 31.6 µM [inhibitor, single point]",–
O=C1CC(Nc2ccc(N3CCOCC3)cc2)C(=O)N1c1ccccc1 (stereo not given),"inconclusive: 31.6 µM [inhibitor, partial curve]",–
COc1cc(/C=C2\SC(=S)N(Nc3ccccc3)C2=O)cc(OC)c1OC,"inconclusive: 25.1 µM [inhibitor, partial curve]",–
COc1ccc(S(=O)(=O)N2Cc3ccccc3CC2C(=O)O)cc1 (stereo not given),"inconclusive: 15.8 µM [inhibitor, single point]",–
CC1=NOC(=O)/C1=C\c1ccc(-c2cccc(Cl)c2)o1,active: 2.51 µM,–
CN(C)S(=O)(=O)c1ccc(/C(O)=C2/C(=O)C(=O)N(Cc3cccnc3)C2c2ccncc2)cc1 (stereo not given),"inconclusive: 7.94 µM [inhibitor, full curve, poor fit]",–
CC(=O)c1cccc(NC(=O)Nc2cc3sccc3n2C)c1,–,inactive: -20.6%
CC1(C)c2ccccc2N2CCC(=O)NC21/C=C/c1ccco1 (stereo not given),"inconclusive: 25.1 µM [inhibitor, single point]",–
CC(C)(C)C1CCC(=NNc2ncc(C(F)(F)F)cc2Cl)CC1 (stereo not given),"inconclusive: 31.6 µM [inhibitor, partial curve, poor fit]",–
CC(=O)N1CCN(c2ccc(NCc3ccc(C)cc3)cc2)CC1,active: 10 µM,–
CCOc1ccccc1N(C(=O)CNC(=O)c1ccco1)C(C(=O)NC(C)(C)C)c1ccncc1 (stereo not given),"inconclusive: 39.8 µM [inhibitor, single point]",–
